PMC7937711, “Development and Characterization of Nanobodies Targeting the Kupffer Cell” (Frontiers in Immunology, 2021)

Target: T1, recombinant mouse Clec4F (CLEC4F/CLECSF13), soluble extracellular domain Ala65-Gly548 (mouse) (UniProt P70194)
T1 sequence: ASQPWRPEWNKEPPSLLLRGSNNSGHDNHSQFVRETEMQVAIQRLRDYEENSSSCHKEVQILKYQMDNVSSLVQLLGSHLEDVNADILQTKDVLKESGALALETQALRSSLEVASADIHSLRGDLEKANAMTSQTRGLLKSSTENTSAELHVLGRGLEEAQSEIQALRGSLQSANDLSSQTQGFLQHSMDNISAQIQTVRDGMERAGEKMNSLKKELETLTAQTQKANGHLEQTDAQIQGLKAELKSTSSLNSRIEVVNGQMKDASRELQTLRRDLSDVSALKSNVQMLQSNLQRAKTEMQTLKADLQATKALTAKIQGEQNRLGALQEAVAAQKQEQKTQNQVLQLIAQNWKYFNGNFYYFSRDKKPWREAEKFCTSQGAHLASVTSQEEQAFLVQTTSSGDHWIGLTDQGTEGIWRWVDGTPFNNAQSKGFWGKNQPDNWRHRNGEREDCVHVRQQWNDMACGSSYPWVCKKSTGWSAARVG
Test: SPR; Biacore T200; 400 RU of recombinant mouse Clec4F coupled to a CM5 chip; nanobodies flown at 30 ul/min at 1-400 nM; 1:1 binding model

B1: Nb14.70 (VHH)
VHH: QVQLVESGGGLVQAGDSLSLVCTLPERSRFAVGWFRQASGKEREIVAAISWLGMNEYYGDSVKGRSTISRDNAKNTVRLQMDSLKREDTAVYYCAADYSLDNVRRTPRFWGQGTQVTVSS
For B1, the Kd was 1.98 nM and 0.19 nM [columns of one line].

Certain results were filed several times, with different values. Only these are listed. There may be further records. Values given together seem to repeat one measurement (runs, samples, wells or individuals).
